Legend:
[1] = target: T1, Human IL-2 Receptor beta, Fc-Tag (human, UniProt P14784 27-240); assay: SPR (Biacore T200), receptor-Fc captured on anti-human Fc CM5 chip, IL-2 compound as analyte, 25 C
T1 construct: extracellular domain; Bought from Symansis, New Zealand; also called IL-2Rβ; CD122
Protocol: (§1) For the determination of binding kinetics to IL-2Rα the following chip preparation was used: Human IL-2 Receptor alpha, Fc-Tag (Symansis, New Zealand) was diluted in HBS-EP running buffer (GE Healthcare, 10 mM HEPES, 150 mM NaCl, 3 mM EDTA, 0.05% Surfactant P20, pH 7.4) to approx. 0.67 μg/mL and immobilized at a flow rate of 10 μL/min for 60 s to achieve 80-100 response units (RU).
as §1, with “IL-2Rβ” for “IL-2Rα”, “beta,” for “alpha,”, “around 0.80” for “approx. 0.67”, “140-180” for “80-100”
(§2) For kinetic measurements on all three receptor subunit setups, Aldesleukin or biased IL-2 compounds were analysed in multi-cycle kinetics and therefore injected in at least five different concentrations in HBS-EP running buffer at 25° C. (30 μL/min flow rate, 120 s contact time, 600 s dissociation time). Double referenced data (subtracted data from the reference flow cell and the buffer only samples) was, if possible analysed either kinetically via a 1:1 binding model or via steady-state analysis (Biacore T200 Evaluation Software, Version 3.1) to determine KD and if possible, kₐ and kd. […]

[2] = target: T2, Human IL-2 Receptor alpha, Fc-Tag (human, UniProt P01589 22-240); assay: as above
T2 construct: extracellular domain; Bought from Symansis, New Zealand; also called IL-2Rα; CD25
Protocol: as §1
as §1, with “IL-2Rβ” for “IL-2Rα”, “beta,” for “alpha,”, “around 0.80” for “approx. 0.67”, “140-180” for “80-100”
as §2

[3] = target: T3, IL-2Rαβ complex (Human IL-2 Receptor alpha, Fc-Tag and Human IL-2 Receptor beta, Fc-Tag, mixed and … (human, UniProt P01589 22-240; P14784 27-240); assay: SPR (Biacore T200), IL-2Rα-Fc and IL-2Rβ-Fc captured together on anti-human Fc CM5 chip, IL-2 compound as analyte, 25 C
T3 construct: extracellular domain; Not a covalent heterodimer: the two Fc-tagged subunits were mixed (around 1.33 µg/mL each) and captured together on the anti-human Fc chip; not shown: Fc-Tag of the bought product (Symansis)
T3 sequence (looked up) 1: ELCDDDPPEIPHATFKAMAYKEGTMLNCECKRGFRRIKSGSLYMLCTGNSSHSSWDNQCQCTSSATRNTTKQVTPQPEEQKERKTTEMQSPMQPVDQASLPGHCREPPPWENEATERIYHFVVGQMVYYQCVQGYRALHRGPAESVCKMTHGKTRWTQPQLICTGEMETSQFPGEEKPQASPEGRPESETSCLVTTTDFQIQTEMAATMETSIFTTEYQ
T3 sequence (looked up) 2: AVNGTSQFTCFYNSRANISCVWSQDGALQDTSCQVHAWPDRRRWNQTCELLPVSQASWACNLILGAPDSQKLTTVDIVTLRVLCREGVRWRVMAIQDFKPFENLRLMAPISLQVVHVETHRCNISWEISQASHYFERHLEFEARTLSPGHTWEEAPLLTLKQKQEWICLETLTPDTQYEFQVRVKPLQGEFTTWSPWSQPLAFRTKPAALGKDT
Protocol: For the determination of binding kinetics to the IL-2Rαβ complex the following chip preparation was used: Human IL-2 Receptor alpha, Fc-Tag (Symansis, New Zealand) and Human IL-2 Receptor beta, Fc-Tag (Symansis, New Zealand) were mixed and diluted in HBS-EP running buffer (GE Healthcare, 10 mM HEPES, 150 mM NaCl, 3 mM EDTA, 0.05% Surfactant P20, pH 7.4) to around 1.33 μg/mL each and were immobilized at a flow rate of 10 μL/min for 60 s to achieve 360-440 response units (RU).
For kinetic measurements on all three receptor subunit setups, Aldesleukin or biased IL-2 compounds were analysed in multi-cycle kinetics and therefore injected in at least five different concentrations in HBS-EP running buffer at 25° C. (30 μL/min flow rate, 120 s contact time, 600 s dissociation time). Double referenced data (subtracted data from the reference flow cell and the buffer only samples) was, if possible analysed either kinetically via a 1:1 binding model or via steady-state analysis (Biacore T200 Evaluation Software, Version 3.1) to determine KD and if possible, kₐ and kd. Regeneration after each cycle was performed with 3 M MgCl₂ for 30 s at a flow rate of 30 μL/min.

Chain of Human IL-2 Receptor beta, Fc-Tag (P14784 whole entry, the tested form may be a part): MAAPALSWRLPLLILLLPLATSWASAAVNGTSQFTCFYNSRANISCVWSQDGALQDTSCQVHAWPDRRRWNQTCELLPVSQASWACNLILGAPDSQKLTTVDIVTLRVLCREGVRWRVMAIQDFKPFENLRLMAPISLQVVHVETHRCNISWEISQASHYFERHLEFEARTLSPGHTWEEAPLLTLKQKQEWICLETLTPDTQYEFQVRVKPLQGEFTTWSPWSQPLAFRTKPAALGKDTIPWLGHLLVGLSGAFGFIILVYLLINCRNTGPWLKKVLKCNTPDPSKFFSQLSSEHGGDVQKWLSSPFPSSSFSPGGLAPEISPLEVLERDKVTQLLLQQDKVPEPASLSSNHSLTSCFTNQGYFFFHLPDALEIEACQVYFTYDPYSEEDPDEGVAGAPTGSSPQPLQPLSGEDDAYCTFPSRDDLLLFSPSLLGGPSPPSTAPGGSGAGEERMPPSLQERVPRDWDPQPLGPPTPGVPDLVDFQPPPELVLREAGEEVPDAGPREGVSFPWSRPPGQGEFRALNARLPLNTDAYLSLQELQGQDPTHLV

B1: Aldesleukin (recombinant human IL-2, desA1, C125S) (ligand)
chain: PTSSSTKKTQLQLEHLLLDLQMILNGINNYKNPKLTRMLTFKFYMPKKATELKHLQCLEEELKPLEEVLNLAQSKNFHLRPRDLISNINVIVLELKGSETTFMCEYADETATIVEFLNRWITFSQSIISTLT
notes: Bought from Peprotech (catalog AF-200-02)
Which results are given for B1?
Kd [1]: 287 nM; Kd [2]: 5.65 nM; Kd [3]: 0.141 nM

Source: patent US20260226127A1 (ASCENDIS PHARMA ONCOLOGY DIVISION A S, published 2026)
